# Experimental data as given in PubChem BioAssay (NCATS).
# Inconclusive means that the source gave no clear call. Such entries were picked first, then a sample of the others. For part of these data: Where the call is inconclusive, the potency comes from a doubtful curve fit. The source made the active and inactive calls. Unless noted, calls come from the whole dose curve; as a rule, active = well fitted curve in the direction sought with a large enough effect; inconclusive = small, poorly fitted or top-dose-only effect, or another doubt; inactive = no such curve, though single readings can be large; an effect the other way counts as inactive or inconclusive. Peptide text beside a SMILES is read from it. * marks the point of attachment. βNA = c1ccc2cc(N*)ccc2c1; Cbz = O=C(OCc1ccccc1)*
# Tests used:
# [1] = Primary qHTS for inhibitors of nuclear receptor binding SET domain protein 2 (NSD2) in an isogenic RCH-ACV NSD2 p.E1099K mutant (9B) (AID 1645876); settings: activity change, negative = viability loss: at 44.9 µM (top of the series) unless noted; note: % is set by controls: 0 for no effect and ±100 for the full control effect; nearly all actives have a fitted effect of over 70% in size
# [2] = tested on: OV90; assay: Primary qHTS to identify gynecologic anti-cancer compounds using libraries of approved drugs and bioactive compounds (AID 1345084); settings: Gynecologic cancer cell panel viability, ATPlite luminescence, 48 h; series mostly up to 57.5 µM; note: nearly all actives have a fitted effect of over 55% in size; note: potency is the fitted concentration of half-maximal effect; for activity change, negative = cytotoxicity: % is set by controls: 0 for no effect and ±100 for the full control effect
# Summary of the method: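 Cytotoxicity screen measuring ATP content by luciferase luminescence. Each compound is applied at five concentrations for 48 h at 37 C with 5% CO2.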
# [3] = P-glycoprotein substrates identified in KB-8-5-11 adenocarcinoma cell line, qHTS therapeutic library screen (AID 1346987); settings: activity change, negative = cytotoxicity: at 44.5 µM (top of the series); note: % is set by controls: 0 for no effect and ±100 for the full control effect; nearly all actives have a fitted effect of over 65% in size
# Summary of the method: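 Steps: plate 500 KB-8-5-11 cells/well in DMEM + 10% FCS (colchicine removed); pin compounds in dose-response; incubate 72 h, 37 degree C, 5% CO2; add CellTiter-Glo, 5 min; read luminescence.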
# [4] = tested on: Zika virus NS2B-NS3 protease (unlinked complex); assay: Primary screen GU Rhodamine qHTS for Zika virus inhibitors: Unlinked NS2B-NS3 protease assay (AID 1347159); settings: Recombinant ZIKV NS2B-NS3 protease, Rhodamine110 substrate fluorescence; activity change, negative = inhibition: at 107 µM (top of the series); note: potency is the fitted concentration of half-maximal effect; nearly all actives have a fitted effect of over 60% in size
# Summary of the method: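 Noncovalent NS2B hydrophilic domain–NS3 protease domain complex (25 nM) preincubated 15 min at room temperature with compounds (up to 114 microM) in 10 mM Tris-HCl pH 8.0, 0.01% Tween 20; 1.5 microM Rhodamine110 substrate added, fluorescence change over 15 min fitted to Hill equation.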
# [5] = tested on: Zika virus NS2B-NS3 protease (linked construct); assay: Primary screen NINDS Rhodamine qHTS for Zika virus inhibitors (AID 1347160); note: nearly all actives have a fitted effect of over 55% in size; note: potency is the fitted concentration of half-maximal effect
# Summary of the method: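 Purified linked NS2B-NS3 protease (NS2B hydrophilic domain joined to NS3 protease by flexible linker), 25 nM in 10 mM Tris-HCl pH 8.0, 0.01% Tween 20. Compounds titrated, 15 min preincubation at room temperature; 1.5 microM Rhodamine110 substrate, FITC fluorescence change over 15 min.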
# [6] = Primary qHTS for inhibitors of nuclear receptor binding SET domain protein 2 (NSD2) in an RCH-ACV wild type WT cells (2C) (AID 1645877); settings: activity change, negative = cell killing: at 44.9 µM (top of the series) unless noted; note: nearly all actives have a fitted effect of over 70% in size; note: potency is the fitted concentration of half-maximal effect
# [7] = Primary fluorescence-based thiol-reactive (MSTI) qHTS assay for identification of artifact compounds. (AID 1845221); note: potency is the fitted concentration of half-maximal effect;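 note: thiol-reactive compounds lower the probe fluorescence signal; nearly all actives have a fitted effect of over 65% in size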
# Summary of the method: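 Curve-fitted percent inhibition (4-parameter Hill) derived from fluorescence, Ex 525/Em 598 nm, scaled with Acetyl-MSTI and MSTI; 1 h incubation at room temperature.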
# [8] = Primary redox qHTS assay for identification of artifact compounds. (AID 1845223); note: potency is the fitted concentration of half-maximal effect
# Summary of the method: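 Amplex Red (25 uM) and HRP (250 mU/mL) in HBSS, with compounds for 15 min, then 250 uM DTT for 30 min, room temperature, dark. Fluorescence 525/598 nm read; normalized to DMSO and 10 uM DA3003; Hill fit.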
# [9] = target: Cytochrome P450 2C9 (Homo sapiens) (UniProt P11712); assay: Cytochrome P450 family 2 subfamily C member 9 (CYP2C9) small molecule antagonists: luciferase biochemical (cell-free) qHTS assay (AID 1645842; active = well fitted curve in the direction sought with a large enough effect in the repeat runs; inconclusive = weak or mixed curves; inactive = no such curve, though single readings can be large; an effect the other way counts as inactive or inconclusive; note: potency is the fitted concentration of half-maximal effect; nearly all actives have a fitted effect of over 55% in size)
# UniProt P11712, sequence (P11712 whole entry, looked up): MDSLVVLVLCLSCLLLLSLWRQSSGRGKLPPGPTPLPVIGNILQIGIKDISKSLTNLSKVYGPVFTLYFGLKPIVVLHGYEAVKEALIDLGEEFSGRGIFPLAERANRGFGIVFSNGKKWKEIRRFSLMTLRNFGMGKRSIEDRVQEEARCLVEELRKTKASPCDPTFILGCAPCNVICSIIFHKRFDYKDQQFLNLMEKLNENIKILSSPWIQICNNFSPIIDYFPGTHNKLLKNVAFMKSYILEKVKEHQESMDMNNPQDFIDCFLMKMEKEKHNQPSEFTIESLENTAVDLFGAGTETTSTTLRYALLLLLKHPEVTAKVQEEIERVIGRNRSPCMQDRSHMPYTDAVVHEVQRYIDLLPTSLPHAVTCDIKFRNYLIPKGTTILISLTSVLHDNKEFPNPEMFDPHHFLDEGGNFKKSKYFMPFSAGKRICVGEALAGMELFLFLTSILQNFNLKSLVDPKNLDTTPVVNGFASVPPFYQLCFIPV
# Summary of the method: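 Luminescence, after 20 min with luciferin detection reagent, reflected CYP2C9 turnover during a 1 h NADPH-driven reaction at 37C. Enzyme-substrate mix contained 0.4% bovine serum albumin and was preincubated with compound 10 min at room temperature.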
# [10] = target: Phospholipid hydroperoxide glutathione peroxidase GPX4 (Homo sapiens) (UniProt P36969); assay: Primary qHTS Assay for Inhibitors of Recombinant Selenoprotein Glutathione Peroxidase 4 (GPX4) (AID 1845192); settings: activity change, negative = inhibition: at 50 µM (top of the series) unless noted; note: potency is the fitted concentration of half-maximal effect; nearly all actives have a fitted effect of over 65% in size
# UniProt P36969, sequence (P36969 whole entry, looked up): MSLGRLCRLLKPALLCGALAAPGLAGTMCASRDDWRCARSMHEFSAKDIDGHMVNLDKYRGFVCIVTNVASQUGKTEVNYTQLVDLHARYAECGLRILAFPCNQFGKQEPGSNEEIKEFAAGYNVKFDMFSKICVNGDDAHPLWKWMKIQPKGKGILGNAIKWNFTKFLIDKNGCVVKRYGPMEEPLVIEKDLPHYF
# Summary of the method: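 GR-coupled readout: 100 nM GR, 1 mM GSH, 0.5 mM NADPH; NADPH fluorescence (ex 340/em 450 nm) read at t=0 and after 15 min RT. GPX4 200 nM, preincubated 30 min with compound; substrate 0.5 mM CHP.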
# [11] = NFAT Signaling Pathway (AID 444; active = well fitted curve in either direction with a large enough effect, not every such curve was filed as active; inconclusive = small, poorly fitted or top-dose-only effect, or another doubt;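 note: carbachol stimulus at about its EC50 of 1 µM final; % is set by controls: 0 for no effect and ±100 for the full control effect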); settings: Jurkat NFAT-bla M1, carbachol, beta-lactamase ratio, 5 h; at 38 µM (top of the series)
# Summary of the method: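 Jurkat cells carrying an NFAT-driven β-lactamase reporter and co-transfected muscarinic M1 receptor were treated with compound plus carbachol (1 uM final, an EC50 level) for 5 h at 37 °C. CCF4 loading followed for 1 h at RT; 460/530 nm ratio gave %activity.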
# [12] = Stat Signaling Pathway (AID 446; active = well fitted curve in either direction with a large enough effect, not every such curve was filed as active; inconclusive = small, poorly fitted or top-dose-only effect, or another doubt;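 note: ME-180 cervical cancer cells given 40 pM IL-6 alongside compound; SIE-controlled beta-lactamase reporter measured as 460/530 nm FRET emission ratio; top concentration of the series differs between compounds; % is set by controls: 0 for no effect and ±100 for the full control effect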); settings: ME-180 SIE beta-lactamase reporter, IL-6 stimulated, 5 h; at 38 µM (top of the series)
# Summary of the method: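 ME-180 SIE-bla cells; overnight plating; cpd + IL-6 40 pM, 5 h, 37 C; LiveBLAzer 2.5 h RT; 460/530 nm emission ratio. Normalized to 300 pM IL-6 and 125 nM JAK inhibitor controls.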
# [13] = target: Cytochrome P450 3A4 (Homo sapiens) (UniProt P08684); assay: qHTS Assay for Inhibitors and Substrates of Cytochrome P450 3A4 (AID 884); settings: recombinant CYP3A4, Luciferin-PPXE luminescence; activity change, negative = inhibition: at 57.1 µM (top of the series); note: potency is the fitted concentration of half-maximal effect; nearly all actives have a fitted effect of over 50% in size
# UniProt P08684, sequence (P08684 whole entry, looked up): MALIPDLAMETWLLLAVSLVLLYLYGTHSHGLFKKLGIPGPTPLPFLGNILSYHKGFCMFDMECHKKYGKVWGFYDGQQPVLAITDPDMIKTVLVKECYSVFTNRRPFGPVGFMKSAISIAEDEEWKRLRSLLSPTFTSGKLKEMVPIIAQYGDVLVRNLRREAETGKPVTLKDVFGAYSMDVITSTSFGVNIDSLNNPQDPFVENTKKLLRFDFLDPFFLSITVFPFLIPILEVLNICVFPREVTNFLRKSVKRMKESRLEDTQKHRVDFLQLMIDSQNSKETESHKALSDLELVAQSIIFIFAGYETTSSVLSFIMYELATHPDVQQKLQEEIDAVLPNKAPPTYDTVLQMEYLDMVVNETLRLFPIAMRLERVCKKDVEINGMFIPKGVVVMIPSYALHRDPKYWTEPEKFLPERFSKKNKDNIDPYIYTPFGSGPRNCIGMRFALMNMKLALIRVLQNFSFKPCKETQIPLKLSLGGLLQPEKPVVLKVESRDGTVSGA
# Summary of the method: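 20 nM human CYP3A4 with 25 uM Luciferin-PPXE (at KM) in 200 mM KPO4, preincubated 10 min with compound; NADPH regeneration started a 60 min RT reaction. Luciferin detected by luminescence, normalized to 57 uM ketoconazole as full inhibition.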
# [14] = qHTS Assay for Identification of Small Molecule Antagonists for NFkB Signaling Pathway (AID 895; active = well fitted inhibition curve with a large enough effect in the signal ratio, with a control signal flat, not every such curve was filed as active; inconclusive = small, poorly fitted or top-dose-only effect, or effect the other way, or a change in a side signal; the % refers to the signal ratio; note: % is set by controls: 0 for no effect and ±100 for the full control effect); settings: NFkB beta-lactamase reporter cells, FRET ratio 460/530, stimulated with 10 pM TNF alpha; activity change, negative = inhibition: at 38.3 µM (top of the series)
# Summary of the method: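 NFkB-bla ME-180 cervical carcinoma cells with beta-lactamase reporter under NFkB response element; compounds added, then TNF alpha at 10 pM final (EC50), 5 h at 37 C. LiveBLAzer substrate 2 h, room temperature; emission 460/530 nm at 405 nm excitation.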
# [15] = qHTS Assay for Identification of Small Molecule Antagonists for Thrombopoietin (TPO) Signaling Pathway (AID 918); settings: TPO-dependent cell signaling reporter, antagonist mode; activity change, negative = inhibition: at 38.5 µM (top of the series); note: nearly all actives have a fitted effect of over 60% in size
# Summary of the method: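 Ba/F3 (murine, hTPO-R, GPIIb-luc reporter); overnight IL-3 withdrawal; cpd + TPO 26 pM final (EC50); 24 h 37 C/5% CO2; Steadylite luminescence after 10 min RT.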
# [16] = target: Muscarinic acetylcholine receptor M1 (Rattus norvegicus) (UniProt P08482); assay: qHTS Assay for Antagonists of Acetylcholine Muscarinic M1 Receptor: Kinetic Measurement of Intracellular Calcium Response (AID 943);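 note: Fluo-4 calcium signal as peak divided by basal fluorescence over 4 min; nearly all actives have a fitted effect of over 75% in size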
# UniProt P08482, sequence (P08482 whole entry, looked up): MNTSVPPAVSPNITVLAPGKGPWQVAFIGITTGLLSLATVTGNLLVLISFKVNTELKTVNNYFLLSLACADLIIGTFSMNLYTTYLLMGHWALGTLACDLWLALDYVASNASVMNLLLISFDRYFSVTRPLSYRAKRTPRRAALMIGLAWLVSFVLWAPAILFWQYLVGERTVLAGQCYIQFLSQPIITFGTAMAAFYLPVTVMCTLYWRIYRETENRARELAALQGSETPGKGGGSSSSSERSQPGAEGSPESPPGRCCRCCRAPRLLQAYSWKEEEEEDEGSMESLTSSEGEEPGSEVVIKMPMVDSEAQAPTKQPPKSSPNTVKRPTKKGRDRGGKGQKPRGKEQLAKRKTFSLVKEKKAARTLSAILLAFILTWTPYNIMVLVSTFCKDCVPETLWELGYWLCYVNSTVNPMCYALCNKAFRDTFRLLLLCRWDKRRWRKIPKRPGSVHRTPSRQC
# Summary of the method: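 Rat M1-CHO cells, 2000/well, overnight → Fluo-4 no-wash dye with probenecid, 1 h 37C → compound 10 min, room temp → basal read 6 s → carbachol EC80 (100 nM) → 4 min kinetic read; peak/basal.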
# [17] = target: Glutathione peroxidase 1 (Homo sapiens) (UniProt P07203); assay: Primary qHTS Assay for Inhibitors of Recombinant Selenoprotein Glutathione Peroxidase 1 (GPX1) (AID 1845191); note: potency is the fitted concentration of half-maximal effect; nearly all actives have a fitted effect of over 65% in size
# UniProt P07203, sequence (P07203 whole entry, looked up): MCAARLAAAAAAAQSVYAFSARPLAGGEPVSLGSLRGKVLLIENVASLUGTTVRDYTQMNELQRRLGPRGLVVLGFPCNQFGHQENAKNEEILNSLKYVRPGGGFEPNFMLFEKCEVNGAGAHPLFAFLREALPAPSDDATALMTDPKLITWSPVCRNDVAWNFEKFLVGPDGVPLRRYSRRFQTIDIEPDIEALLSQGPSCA
# Summary of the method: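 Recombinant GPX1 (10 nM final) was preincubated with compound for 30 min at room temperature, then reacted with 1 mM GSH, 0.5 mM CHP, 0.5 mM NADPH and 100 nM glutathione reductase; NADPH fluorescence (340/450 nm) was read at 0 and 15 min.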
# Tags give direction and shape of the fitted curve.
smiles,measurement,setting,value
COc1ccc(CC(=O)NCc2ccccc2-c2ccccc2C(=O)NCCc2cccnc2)cc1,Potency,[1],inactive
same,Potency,[2],inactive
C=C1CCC2C(C)(C)CC(=O)CC2(C)C1CCC(C)CCO (stereo unspecified),Potency,[3],inactive
same,Potency,[4],active: 20 µM
same,Potency,[5],"inconclusive: 28.2 µM [inhibitor, single point]"
same,Potency,[1],inactive
same,Potency,[6],"inconclusive: 29 µM [inhibitor, single point]"
same,Potency,[7],"inconclusive: 26.7 µM [inhibitor, single point]"
same,Potency,[8],"inconclusive: 29.9 µM [activator, partial curve, poor fit]"
same,Potency,[2],inactive
Cc1cn2c(N)c(Cl)cc(C(=O)NCC3CCN(CC(C)C)CC3)c2n1,Potency,[9],"inconclusive: 1.9 µM [inhibitor, partial curve, poor fit]"
same,Potency,[6],"inconclusive: 11.5 µM [inhibitor, partial curve, poor fit]"
same,Potency,[10],active: 22.7 µM
same,Potency,[8],inactive
same,Potency,[2],"inconclusive: 28.2 µM [cytotoxic, single point]"
CC1(C)C2CC=C(COC3OC(COC4OCC(O)(CO)C4O)C(O)C(O)C3O)C1C2 (stereo unspecified),Potency,[5],inactive
same,Potency,[7],inactive
same,Potency,[2],inactive
COC1CC(OC2CCC3(C)C(=CCC4C3CCC3(C)C(C(C)O)CCC43O)C2)OC(C)C1OC1OC(C)C(OC2OC(COC3OC(COC4OC(CO)C(O)C(O)C4O)C(O)C(O)C3O)C(O)C(O)C2O)C(OC)C1O (stereo unspecified),outcome,[6],inactive [at 9.23 µM]
same,Potency,[8],"inconclusive: 1.79 µM [activator, full curve]"
same,"activity change, negative = cytotoxicity",[2],inactive: 3.31% [at 11.6 µM]
CC(C)CC(NC(=O)OCc1ccccc1)C(=O)NC(CC(C)C)C(=O)NC(CCC(=O)O)C(=O)Nc1ccc2ccccc2c1 (stereo not drawn) (Cbz-Leu-Leu-Glu-βNA; configuration not given here),Potency,[4],active: 11.2 µM
same,Potency,[5],active: 11.2 µM
same,Potency,[2],inactive
CC(C)C[C@H](NC(=O)[C@@H]1O[C@H]1C(=O)O)C(=O)NCCCCN=C(N)N,"activity change, negative = inhibition",[11],inconclusive: 23.1% [inhibitor]
same,"activity, negative = inhibition",[12],inconclusive: -44% [inhibitor]
same,Potency,[13],"inconclusive: 0.158 µM [inhibitor, full curve, poor fit]"
same,"activity change, negative = inhibition",[14],inconclusive: -30.9%
same,"activity change, negative = inhibition",[15],inconclusive: -10.5% [phenotype inactive]
same,Potency,[16],inactive
same,Potency,[5],"inconclusive: 39.8 µM [inhibitor, single point]"
same,Potency,[1],inactive
same,Potency,[2],active: 28.2 µM
CNc1cc(OC)c(C(=O)N[C@@H]2CCN(Cc3ccccc3)[C@@H]2C)cc1Cl,Potency,[6],"inconclusive: 14.5 µM [inhibitor, partial curve]"
same,Potency,[17],"inconclusive: 28.6 µM [inhibitor, partial curve]"
same,Potency,[2],"inconclusive: 6.31 µM [cytotoxic, full curve, poor fit]"
